Source: the antibiotic and cytotoxicity screens of Wong et al. (2023)
The list shows a part of the results.

Key:
[1] = test system: HSkMC (human skeletal muscle cells); assay: cytotoxicity call (relative viability < 0.9); details: 10 µM
[2] = test system: HepG2; assay: cytotoxicity call (relative viability < 0.9); details: 10 µM
[3] = test system: S. aureus RN4220; assay: growth inhibition call (relative growth <= 0.2); details: 50 µM

Compound | cytotoxicity call [1] | cytotoxicity call [2] | growth inhibition call [3]
C[C@@H]1CCCCO[C@@H](CN(C)Cc2ccc(C(F)(F)F)cc2)[C@@H](C)CN([C@H](C)CO)C(=O)c2cc(NC(=O)Nc3ccc(C(F)(F)F)cc3)ccc2O1 | inactive | inactive | inactive
COc1ccc(CN(C)C[C@@H]2OCCCC[C@H](C)Oc3ccc(NC(=O)CCC(F)(F)F)cc3C(=O)N([C@H](C)CO)C[C@H]2C)cc1 | inactive | inactive | inactive
C[C@@H]1CCCCO[C@@H](CN(C)C(=O)C2CCCCC2)[C@@H](C)CN([C@H](C)CO)C(=O)c2cc(NC(=O)Cc3ccccc3)ccc2O1 | inactive | inactive | inactive
NC(=O)c1cnc2n(c1=O)CCS2 | inactive | inactive | inactive
C[C@@H]1CN([C@H](C)CO)C(=O)c2cc(NC(=O)Nc3ccc(C(F)(F)F)cc3)ccc2O[C@H]1CN(C)CC1CCCCC1 | inactive | active | inactive
Cc1noc(C)c1S(=O)(=O)Nc1ccc2c(c1)C(=O)N([C@@H](C)CO)C[C@H](C)[C@H](CN(C)C(=O)Nc1ccc(C(F)(F)F)cc1)OCCCC[C@H](C)O2 | inactive | inactive | inactive
CN1CCN(C(=O)C[C@@H]2CC[C@H](NC(=O)c3ccc4c(c3)OCO4)[C@H](CO)O2)CC1 | inactive | inactive | inactive
COc1cccc(S(=O)(=O)Nc2ccc3c(c2)[C@@H]2C[C@H](CC(=O)NCc4cccc(F)c4)O[C@H](CO)[C@@H]2O3)c1 | inactive | inactive | inactive
C=C(C1=CCN(S(=O)(=O)c2ccc(C)cc2)C1)[C@@H](OC(C)=O)[C@@H]1CCCN1S(=O)(=O)c1ccccc1[N+](=O)[O-] | inactive | inactive | inactive
C[C@H]1CCCCO[C@@H](CN(C)C(=O)c2ccccc2)[C@@H](C)CN([C@@H](C)CO)C(=O)c2cc(NS(=O)(=O)c3ccccc3)ccc2O1 | inactive | inactive | inactive
C[C@@H]1CN([C@@H](C)CO)C(=O)c2cc(NS(=O)(=O)c3ccc(Cl)cc3)ccc2O[C@@H](C)CCCCO[C@@H]1CN(C)C(=O)Nc1ccccc1 | inactive | inactive | inactive
C[C@@H]1CN([C@@H](C)CO)C(=O)c2cc(NC(=O)Cn3cnnn3)ccc2O[C@H]1CN(C)S(=O)(=O)c1ccccc1 | inactive | inactive | inactive
C[C@@H]1CN([C@H](C)CO)C(=O)Cc2cc(NC(=O)Nc3ccc(C(F)(F)F)cc3)ccc2O[C@H]1CN(C)S(=O)(=O)c1ccc(Cl)cc1 | active | inactive | inactive
